The source of these data is the supplement of paper PMC10369915.

The other results are listed elsewhere or left out. Cut-off read from the data, not from the text of the source: active = 3.2 or more and inactive = the rest. The signal is at background level for most entries.
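Note: displayed peptides selected on beads carrying the immobilized SH2 domain, with library peptides lacking any tyrosine serving as negative controls.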

One assay has as its target SHP2 C-SH2 domain E139D. The experiment in a line: enrichment score (SH2-bound / input frequency) (ratio); bacterial display of known human phosphotyrosine sites (pTyr-Var adds point mutants) read by sequencing; higher = stronger binding; tyrosines were phosphorylated by kinases first. The following applies: peptide library: pTyr-Var.
Regarding NFGTNYRVGSS [CPO_Y278_K273N_YF], the enrichment score was inactive: 0.737.
On the same count and under the same terms, the result for TFMKKYPKVFL [CNBD1_Y70_Q69K] reads inactive: 1.36.
The same measure, in the same setting: the result for AGAKTYKMSMA [CPS1_Y309] reads inactive: 0.731.
For the molecule QYPDIYAREEV [CRX_Y67_V66I], the enrichment score was inactive: 0.865.
As for CKSIHYDLVFL [COL22A1_Y37_V35I], the enrichment score is inactive: 1.36.
With NTEGGYCCICA [CRELD1_Y328_R329C], the enrichment score is inactive: 0.846.
Still for that read-out and setting: the same measure for TRVMEYISCLD [CLTCL1_Y1043_R1046C]: inactive: 1.16.
The same measure, in the same setting: the result for VVLEDYLDIKH [CLCNKB_Y138_N143H] reads inactive: 1.23; that for EPGNLYIAKVE [CNTN4_Y180_T176P], inactive: 1.15; that for HLEKKYVRRDS [CSF1R_Y708], inactive: 0.61.
On to QYPDVYAREEV [CRX_Y67], for which the enrichment score is inactive: 0.66.
Regarding AKAEICEMRPL [COX10_Y97_Y97C], the enrichment score is inactive: 0.682.
Still for that read-out and setting: the result for TLGPFYPSRLF [CRYAA_Y18] reads inactive: 1.17.
Still for that read-out and setting: the same measure for HGDDDYDDPEL [CLNK_Y69_S65G]: inactive: 0.386; for EKNANYKEGTY [CLRN1_Y171_I168N]: inactive: 0.462.
On the same count and under the same terms, the result for KVPAIYGVGTR [CPS1_Y162_D165G] reads inactive: 0.756.
Turning to WKEIEYEVVRD [CPS1_Y634], the enrichment score was inactive: 0.886.
On the same count and under the same terms, the same measure for DSIRDYEDGME [CLNS1A_Y214]: inactive: 0.415.
The same measure, in the same setting: the result for MIRSAYALRGL [CPS1_Y590_G593R] reads inactive: 0.724.

A further assay deals with SHP2 C-SH2 domain wild-type. Described as above. The note with it: peptide library: pTyr-Var.
NFGTNYRVGSS [CPO_Y278_K273N_YF]: the enrichment score is inactive: 0.806.
Take TFMKKYPKVFL [CNBD1_Y70_Q69K]: the enrichment score is inactive: 1.04.
Same read-out and setting: the result for AGAKTYKMSMA [CPS1_Y309] reads inactive: 0.651; that for QYPDIYAREEV [CRX_Y67_V66I], inactive: 0.856.
As for CKSIHYDLVFL [COL22A1_Y37_V35I], the enrichment score is inactive: 1.51.
For the molecule NTEGGYCCICA [CRELD1_Y328_R329C], the enrichment score was inactive: 0.735.
Same read-out and setting: the result for TRVMEYISCLD [CLTCL1_Y1043_R1046C] reads inactive: 1.13.
Regarding VVLEDYLDIKH [CLCNKB_Y138_N143H], the enrichment score was inactive: 0.874.
Still for that read-out and setting: the same measure for EPGNLYIAKVE [CNTN4_Y180_T176P]: inactive: 1.07; for HLEKKYVRRDS [CSF1R_Y708]: inactive: 0.69.
On the same count and under the same terms, the same measure for QYPDVYAREEV [CRX_Y67]: inactive: 0.46; for AKAEICEMRPL [COX10_Y97_Y97C]: inactive: 0.577.
Same read-out and setting: the result for TLGPFYPSRLF [CRYAA_Y18] reads inactive: 0.895; that for HGDDDYDDPEL [CLNK_Y69_S65G], inactive: 0.364; that for EKNANYKEGTY [CLRN1_Y171_I168N], inactive: 0.348.
Turning to KVPAIYGVGTR [CPS1_Y162_D165G], the enrichment score is inactive: 0.716.
As for WKEIEYEVVRD [CPS1_Y634], the enrichment score is inactive: 0.799.
On the same count and under the same terms, the same measure for DSIRDYEDGME [CLNS1A_Y214]: inactive: 0.348; for MIRSAYALRGL [CPS1_Y590_G593R]: inactive: 0.683.

The target in the next assay is SHP2 N-SH2 domain L43F. The assay is described as above. The following applies: peptide library: pTyr-Var.
With NFGTNYRVGSS [CPO_Y278_K273N_YF], the enrichment score was inactive: 0.751.
Same read-out and setting: the same measure for TFMKKYPKVFL [CNBD1_Y70_Q69K]: inactive: 0.977; for AGAKTYKMSMA [CPS1_Y309]: inactive: 0.749; for QYPDIYAREEV [CRX_Y67_V66I]: inactive: 1.03.
Same read-out and setting: the result for CKSIHYDLVFL [COL22A1_Y37_V35I] reads inactive: 1.12.
Same read-out and setting: the result for NTEGGYCCICA [CRELD1_Y328_R329C] reads inactive: 0.933.
Consider TRVMEYISCLD [CLTCL1_Y1043_R1046C], for which the enrichment score was inactive: 1.13.
Same read-out and setting: the result for VVLEDYLDIKH [CLCNKB_Y138_N143H] reads inactive: 0.972; that for EPGNLYIAKVE [CNTN4_Y180_T176P], inactive: 0.915.
Still for that read-out and setting: the same measure for HLEKKYVRRDS [CSF1R_Y708]: inactive: 0.904.
Same read-out and setting: the same measure for QYPDVYAREEV [CRX_Y67]: inactive: 0.532; for AKAEICEMRPL [COX10_Y97_Y97C]: inactive: 0.613; for TLGPFYPSRLF [CRYAA_Y18]: inactive: 1.15.
Take HGDDDYDDPEL [CLNK_Y69_S65G]: the enrichment score is inactive: 0.322.
On to EKNANYKEGTY [CLRN1_Y171_I168N], for which the enrichment score was inactive: 0.485.
Still for that read-out and setting: the same measure for KVPAIYGVGTR [CPS1_Y162_D165G]: inactive: 0.706; for WKEIEYEVVRD [CPS1_Y634]: inactive: 0.748; for DSIRDYEDGME [CLNS1A_Y214]: inactive: 0.459.
For MIRSAYALRGL [CPS1_Y590_G593R], the enrichment score is inactive: 0.613.

For another assay, the target named is SHP2 N-SH2 domain T42A. The description is as above. The following applies: peptide library: pTyr-Var.
For the molecule NFGTNYRVGSS [CPO_Y278_K273N_YF], the enrichment score is inactive: 0.638.
For the molecule TFMKKYPKVFL [CNBD1_Y70_Q69K], the enrichment score is inactive: 1.19.
On the same count and under the same terms, the result for AGAKTYKMSMA [CPS1_Y309] reads inactive: 0.843; that for QYPDIYAREEV [CRX_Y67_V66I], inactive: 0.82.
On the same count and under the same terms, the same measure for CKSIHYDLVFL [COL22A1_Y37_V35I]: inactive: 1.63.
Take NTEGGYCCICA [CRELD1_Y328_R329C]: the enrichment score is inactive: 0.904.
The same measure, in the same setting: the same measure for TRVMEYISCLD [CLTCL1_Y1043_R1046C]: inactive: 1.05.
For the molecule VVLEDYLDIKH [CLCNKB_Y138_N143H], the enrichment score is inactive: 0.577.
EPGNLYIAKVE [CNTN4_Y180_T176P]: the enrichment score was inactive: 0.642.
Still for that read-out and setting: the result for HLEKKYVRRDS [CSF1R_Y708] reads inactive: 0.725.
Regarding QYPDVYAREEV [CRX_Y67], the enrichment score was inactive: 0.514.
Same read-out and setting: the result for AKAEICEMRPL [COX10_Y97_Y97C] reads inactive: 0.68.
Consider TLGPFYPSRLF [CRYAA_Y18], for which the enrichment score was inactive: 1.16.
Same read-out and setting: the result for HGDDDYDDPEL [CLNK_Y69_S65G] reads inactive: 0.44; that for EKNANYKEGTY [CLRN1_Y171_I168N], inactive: 0.395.
As to KVPAIYGVGTR [CPS1_Y162_D165G], the enrichment score is inactive: 0.747.
For the molecule WKEIEYEVVRD [CPS1_Y634], the enrichment score was inactive: 0.759.
DSIRDYEDGME [CLNS1A_Y214]: the enrichment score is inactive: 0.365.
Same read-out and setting: the result for MIRSAYALRGL [CPS1_Y590_G593R] reads inactive: 0.513.

The next assay concerns the target SHP2 N-SH2 domain T52S. Described as above. The following applies: peptide library: pTyr-Var.
For NFGTNYRVGSS [CPO_Y278_K273N_YF], the enrichment score is inactive: 0.674.
Still for that read-out and setting: the result for TFMKKYPKVFL [CNBD1_Y70_Q69K] reads inactive: 1.2; that for AGAKTYKMSMA [CPS1_Y309], inactive: 0.792; that for QYPDIYAREEV [CRX_Y67_V66I], inactive: 0.708.
As to CKSIHYDLVFL [COL22A1_Y37_V35I], the enrichment score was inactive: 1.19.
As for NTEGGYCCICA [CRELD1_Y328_R329C], the enrichment score was inactive: 0.85.
TRVMEYISCLD [CLTCL1_Y1043_R1046C]: the enrichment score is inactive: 0.756.
Consider VVLEDYLDIKH [CLCNKB_Y138_N143H], for which the enrichment score is inactive: 0.837.
For EPGNLYIAKVE [CNTN4_Y180_T176P], the enrichment score is inactive: 0.869.
Still for that read-out and setting: the result for HLEKKYVRRDS [CSF1R_Y708] reads inactive: 0.324; that for QYPDVYAREEV [CRX_Y67], inactive: 0.515; that for AKAEICEMRPL [COX10_Y97_Y97C], inactive: 0.623.
On the same count and under the same terms, the result for TLGPFYPSRLF [CRYAA_Y18] reads inactive: 1.14; that for HGDDDYDDPEL [CLNK_Y69_S65G], inactive: 0.389.
On the same count and under the same terms, the result for EKNANYKEGTY [CLRN1_Y171_I168N] reads inactive: 0.367.
Take KVPAIYGVGTR [CPS1_Y162_D165G]: the enrichment score was inactive: 0.72.
On the same count and under the same terms, the result for WKEIEYEVVRD [CPS1_Y634] reads inactive: 0.707; that for DSIRDYEDGME [CLNS1A_Y214], inactive: 0.413; that for MIRSAYALRGL [CPS1_Y590_G593R], inactive: 0.62.

The target of another assay is SHP2 N-SH2 domain wild-type. The description is as above. The following applies: peptide library: pTyr-Var.
Regarding NFGTNYRVGSS [CPO_Y278_K273N_YF], the enrichment score was inactive: 0.658.
Still for that read-out and setting: the same measure for TFMKKYPKVFL [CNBD1_Y70_Q69K]: inactive: 1.02; for AGAKTYKMSMA [CPS1_Y309]: inactive: 0.933.
Consider QYPDIYAREEV [CRX_Y67_V66I], for which the enrichment score was inactive: 0.982.
For the molecule CKSIHYDLVFL [COL22A1_Y37_V35I], the enrichment score is inactive: 1.69.
Still for that read-out and setting: the result for NTEGGYCCICA [CRELD1_Y328_R329C] reads inactive: 0.896; that for TRVMEYISCLD [CLTCL1_Y1043_R1046C], inactive: 1.19.
The same measure, in the same setting: the result for VVLEDYLDIKH [CLCNKB_Y138_N143H] reads inactive: 0.885; that for EPGNLYIAKVE [CNTN4_Y180_T176P], inactive: 1.01.
The same measure, in the same setting: the same measure for HLEKKYVRRDS [CSF1R_Y708]: inactive: 0.558.
With QYPDVYAREEV [CRX_Y67], the enrichment score is inactive: 0.711.
Same read-out and setting: the same measure for AKAEICEMRPL [COX10_Y97_Y97C]: inactive: 0.919; for TLGPFYPSRLF [CRYAA_Y18]: inactive: 1; for HGDDDYDDPEL [CLNK_Y69_S65G]: inactive: 0.434.
With EKNANYKEGTY [CLRN1_Y171_I168N], the enrichment score was inactive: 0.489.
In the case of KVPAIYGVGTR [CPS1_Y162_D165G], the enrichment score is inactive: 0.835.
On the same count and under the same terms, the result for WKEIEYEVVRD [CPS1_Y634] reads inactive: 0.882; that for DSIRDYEDGME [CLNS1A_Y214], inactive: 0.422.
On the same count and under the same terms, the result for MIRSAYALRGL [CPS1_Y590_G593R] reads inactive: 0.593.
